Out of some 360,000 compounds screened, about 11,000 (3.1%) were called active. This list was built around the results that the source calls inconclusive (neither active nor inactive); the mix of calls is not that of the screen. Calls follow the shape of the dose curve; as a rule, active = well fitted inhibition curve with a large enough effect; inconclusive = small, poorly fitted or top-dose-only effect; inactive = no such curve, though single readings can be large or run the other way. No potency is given beside an inconclusive call; the fits are too rough.
Each compound was assayed against Schistosoma mansoni thioredoxin glutathione reductase (TGR) (UniProt Q962Y6) (assay: qHTS Assay for the Inhibitors of Schistosoma Mansoni Peroxiredoxins). Details: purified TGR, DTNB reduction, TNB absorbance 405 nm; series mostly up to 114 µM.
Method in brief: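 First, TGR (20 nM dispensed) and NADPH were mixed with compound. Second, a 15 min room-temperature incubation followed. Third, further NADPH and then DTNB were added to start the reaction. Finally, TNB absorbance was monitored kinetically.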
Also: nearly all actives have a fitted effect of over 60% in size.
Potency is read from the fitted curve at half-maximal effect; tags tell the direction and shape of the fitted curve.

Row | SMILES | Potency
1 | CC(=O)Nc1cccc(NC(=S)Nc2ccc(F)cc2F)c1 | inconclusive [inhibitor, partial curve]
2 | CCN1CCN(Cc2c(O)ccc3c2O/C(=C\C=C\c2ccccc2OC)C3=O)CC1 | inconclusive [inhibitor, partial curve]
3 | CCc1nnc(NC(=O)[C@@H](NC(=O)c2cc(OC)cc(OC)c2)C(C)C)s1 | inactive
4 | COc1ccc2c(c1)SC1=NCCS(=O)(=O)N12 | inactive
5 | COCCNC(=O)c1ccc2c(c1)ncn2-c1ccc(F)c(F)c1 | inconclusive [inhibitor, full curve, poor fit]
6 | COc1ccc([C@@H]2CC=C(C(=O)O)[C@H](c3ccc(Cl)cc3)N2S(=O)(=O)c2ccc(Cl)cc2)cc1 | inconclusive [inhibitor, partial curve]
7 | COCCn1nnnc1C(c1cc2cc(C)cc(C)c2[nH]c1=O)N1CCN(c2ccccc2F)CC1 (stereo not given) | active: 39.8 µM
8 | COc1ccccc1C(=O)n1nc(-c2ccccc2)nc1N | inconclusive [inhibitor, single point]
9 | COc1ccccc1NC(=O)CN1C(=O)CC(C)S(=O)(=O)c2ccccc21 (stereo not given) | inconclusive [inhibitor, partial curve]
10 | Cc1onc(-c2c(Cl)cccc2Cl)c1C(=O)NNc1ccccc1 | active: 50.1 µM
11 | Cc1oc(-c2cccc(Cl)c2)nc1CS(=O)(=O)CC(=O)NC1CC1 | active: 39.8 µM
12 | COc1ccc2c(c1)C=C(CN1CCN(Cc3ccccc3C)C(CCO)C1)CO2 (stereo not given) | inconclusive [inhibitor, partial curve, poor fit]
13 | COCCn1nnnc1C(C(C)C)N1CCSCC1 (stereo not given) | inconclusive [inhibitor, single point]
14 | O=C(CN(Cc1cccs1)C(=O)CCC(=O)Nc1nccs1)NCc1ccccc1 | inconclusive [inhibitor, single point]
15 | Cc1ccsc1C=Nc1ccc(O)cc1 | active: 17.8 µM
16 | CCOc1ccc(C2=CS/C(=C(\C#N)c3nnc4n3CCCCC4)N2CC)cc1 | inactive
17 | Cc1ccc(N2C(=O)c3n[nH]c(C)c3C2c2ccc(Cl)cc2)cc1 (stereo not given) | inactive
18 | CN(C(=O)CC1C(=O)NCCN1Cc1c(F)cccc1Cl)C1CCOCC1 (stereo not given) | active: 50.1 µM
19 | COc1cc(C2OCC3C(c4cc(OC)c(OC)c(OC)c4)OCC23)cc(OC)c1OC (stereo not given) | inconclusive [inhibitor, partial curve]
20 | CCc1ccc2oc(=O)cc(CN3CCN(c4ccc(F)cc4)CC3)c2c1 | inconclusive [inhibitor, partial curve]
21 | O=C1COc2ccc(C(=O)COC(=O)c3ncc(Cl)c(Cl)c3Cl)cc2N1 | active: 50.1 µM
22 | Cc1ccc(SCCC(=O)OCC(=O)Nc2ccc(S(N)(=O)=O)cc2)cc1 | inconclusive [inhibitor, single point]
23 | COc1ccc(S(=O)(=O)N2CCC(C(=O)N(C)Cc3ccc(C)o3)CC2)cc1OC | active: 39.8 µM

Row | SMILES | Potency
24 | C[C@]12CCC3[C@@H](CCC4=CC(=O)CC[C@@]43C=O)C1CCC2=O (stereo not given in full) | inconclusive [inhibitor, partial curve]
25 | COc1ccccc1Nc1nc(N)nc(CN2CCC(Cc3ccccc3)CC2)n1 | inconclusive [inhibitor, partial curve]
26 | O=C(COC(=O)C1CC2C=CC1C2)NCc1ccco1 (stereo not given) | active: 50.1 µM
27 | COC(=O)C(C)Sc1nc2c(cnn2-c2ccccc2)c(=O)[nH]1 (stereo not given) | inactive
28 | COc1ccc(C(CCN2CCCC(C)C2)c2c(OC)cc(OC)c3c(C)cc(=O)oc23)cc1 (stereo not given) | inconclusive [inhibitor, partial curve]
29 | COc1ccc(C2=NOC(C(=O)Nc3ccc(C)cc3)C2)cc1OC (stereo not given) | inactive
30 | C[C@H]1COC2=C1C(=O)C(=O)c1c2ccc2c1CCCC2(C)C | active: 3.98 µM
31 | CN(CCCN1CCCCC1)C(=O)c1cc(COc2ccc(F)cc2F)on1 | inactive
32 | NNc1nnnc2c1sc1nc(N3CCOCC3)c3c(c12)CCCC3 | inconclusive [inhibitor, partial curve]
33 | CC(C)c1onc(C(=O)Nc2cccc(O)c2)c1[N+](=O)[O-] | inconclusive [inhibitor, partial curve]
34 | Cc1ccc(CNC(=O)C2CC3Cn4c(nc5cc(Cl)c(Cl)cc54)C3N2C)o1 (stereo not given) | active: 44.7 µM
35 | CCc1ccccc1N1C(=O)C2C3C=CC(CC3)C2C1=O (stereo not given) | inconclusive [inhibitor, partial curve]
36 | CC(NC(=O)CSC(=S)N(C)C)C12CC3CC(CC(C3)C1)C2 (stereo not given) | inconclusive [inhibitor, full curve]
37 | Oc1ccccc1CNc1ccc2c(c1)OCCO2 | inconclusive [inhibitor, partial curve]
38 | c1ccc(C(c2ccccc2)N2CCN(Cc3nnnn3C3CCCC3)CC2)cc1 | inconclusive [inhibitor, full curve]
39 | CN(c1ccc(F)cc1)S(=O)(=O)c1ccc(Cl)c(C(=O)OCC(=O)NCc2ccco2)c1 | inconclusive [inhibitor, partial curve]
40 | O=C(NC(=S)Nc1ccc(F)cc1)c1ccc2c(c1)OCCO2 | active: 11.2 µM
41 | Cc1ccc(-c2ccc(CCC(=O)O)n2Cc2ccco2)cc1 | active: 35.5 µM
42 | CCOc1cccc(C(=O)NC(=S)Nc2cccc(C)c2)c1 | inconclusive [inhibitor, partial curve]
43 | CCCc1nnc(NC(=O)C(C)N2C(=O)C3C4C=CC(C4)C3C2=O)s1 (stereo not given) | inconclusive [inhibitor, full curve, poor fit]
44 | Fc1ccc(C(c2nnnn2Cc2ccco2)N2CCN(C3CCCCC3)CC2)cc1 (stereo not given) | inconclusive [inhibitor, full curve, poor fit]
45 | CC(C)COC(=O)OCN1C(=O)CN(CCN2CC(=O)N(COC(=O)OCC(C)C)C(=O)C2)CC1=O | inconclusive [inhibitor, partial curve]

Source: PubChem BioAssay AID485364 (National Center for Advancing Translational Sciences (NCATS), 2010)
